The results in this text go back to the supplement of paper PMC11417369.

This is one part of the list.

In the experiment the test system is PfAP2-HC AP2 domain (GST-tagged). Put plainly: gcPBM binding intensity (ln(normalized median fluorescence intensity)); higher = stronger DNA binding. The gist of the method:
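GST-tagged P. falciparum DNA-binding domains, expressed in E. coli (about 25 μg on average), were applied for 1 h to an Agilent 4 × 180k array of primer-extended double-stranded 36-bp intergenic genomic probes plus negative controls. The binding buffer was 1× PBS with 1% milk, 0.2 mg/ml BSA, 0.5% salmon testes DNA and 0.03% Triton X-100. Bound protein was detected with Alexa488 anti-GST antibody and scanned at 488 nm. Binding intensity is the highest Masliner-normalised natural-log median intensity across replicate spots of either probe orientation.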
In the case of “TACTCACAATGGGGTCTACAAAAAAAAAAAAATAAA [XGTACX_negctrl_site229]”, the “gcPBM binding intensity (ln)” value stood at 9.26.

Turning to “TCAAGAATTATATAAACACACATACATACACCCATA [CACACA_site5126]”, the “gcPBM binding intensity (ln)” value is 10.8.

Consider “TTTTATTTCATTTGTTGTACTTTCAAAATATTATTA [XGTACX_site2192]”, for which the “gcPBM binding intensity (ln)” value was 9.66.

Regarding “AAGAATAAAGAATGGTGTACATGCATATAAAATATT [XGTACX_site5707]”, the “gcPBM binding intensity (ln)” value was 9.85.

In the case of “ATGTTATATATGTATTGTACGTATTTTGTATATTAT [XGTACX_site6607]”, the “gcPBM binding intensity (ln)” value is 9.91.

For AGTGTTTTTTATAAAGTGCAATATAAAAACAAAATG, the “gcPBM binding intensity (ln)” value is 9.74.

For “AATTTTTTTTTATTGTGTACTTATTTTTTTATATTT [XGTACX_site917]”, the “gcPBM binding intensity (ln)” value was 9.92.

For “AATATATTTCATTTTTGTACACACAACGTTGGAGGG [XGTACX_site6461]”, the “gcPBM binding intensity (ln)” value was determined as 9.75.

In the case of “CAACATATGCATATGTGTACATATTTTATTTTCAAC [XGTACX_site2237]”, the “gcPBM binding intensity (ln)” value was found to be 9.69.

For the sequence “ACATACATATGTAAATGTACAAAATATCCATAGATT [XGTACX_site2782]”, the “gcPBM binding intensity (ln)” value was found to be 9.89.

In the case of “ATATACTCATTAATAACACACAATATGATAACAAAT [CACACA_site5913]”, the “gcPBM binding intensity (ln)” value amounted to 10.1.

In the case of “TATATATTATCAAGTGGACACACGAAAAAAAGGAAA [CACACA_site3741]”, the “gcPBM binding intensity (ln)” value came to 9.85.

Regarding “TTTTTCATATTATACTTTTATATACATATATAAAAA [XGTACX_negctrl_site281]”, the “gcPBM binding intensity (ln)” value came to 9.47.

Regarding “TAAAGATTGTTCAGTGCATGTTGGCCTGTAAATGGA [TGCATGCA_site315]”, the “gcPBM binding intensity (ln)” value was 9.63.

As for “ATAATGTAGAACTAGAGTACATAAAAAAATAAACAT [XGTACX_site5205]”, the “gcPBM binding intensity (ln)” value was 10.1.

Consider “TTTTTTTTTTTTTTTTTTTGTCTTATATATTACGGA [CACACA_negctrl_site322]”, for which the “gcPBM binding intensity (ln)” value was 8.7.

In the case of “GCTACACAATTTTTTAGTACACACATATAAATATAT [XGTACX_site3131]”, the “gcPBM binding intensity (ln)” value worked out at 9.95.

Regarding “TAAGATATATTTTTTTGTACACATAATAAAATAATA [XGTACX_site8938]”, the “gcPBM binding intensity (ln)” value was 9.12.

For the sequence “AAAAGAAACTTATTTACGCACACTTTATTGCATGTT [CACACA_site3887]”, the “gcPBM binding intensity (ln)” value was 9.84.

For the sequence “GATAAATCATATATAACACACATATGAATATTACAA [CACACA_site1321]”, the “gcPBM binding intensity (ln)” value stood at 9.86.

“GTAATTTTGAGATGATGTACATATTTTTTCCTTGTC [XGTACX_site4103]”: the “gcPBM binding intensity (ln)” value amounted to 9.61.

As to “GGACAAGTTTTTTACATAAATAAAAAAAATAAAAAA [XGTACX_negctrl_site125]”, the “gcPBM binding intensity (ln)” value stood at 9.67.

For “ATATATATATAATAAACACACAAATAGATATAACAT [CACACA_site3715]”, the “gcPBM binding intensity (ln)” value turned out to be 10.1.

For the sequence “TTAAAGCTGACATATACACACATACATAAATTCATA [CACACA_site5377]”, the “gcPBM binding intensity (ln)” value turned out to be 10.1.

Take “TATACATATATTATATGTACATATATATATAATATA [XGTACX_site2942]”: the “gcPBM binding intensity (ln)” value amounted to 9.5.

Turning to “ATACTTATGATAAATACACACTTGAAATTAAGGATT [CACACA_site4772]”, the “gcPBM binding intensity (ln)” value turned out to be 9.62.

Turning to “CGAACAAACAAATAAACACACAAAAAAAAATATATA [CACACA_site1825]”, the “gcPBM binding intensity (ln)” value is 9.84.

Turning to “TTTTTTAAAAGATATATAATATGTATGAATATTCAA [XGTACX_negctrl_site380]”, the “gcPBM binding intensity (ln)” value worked out at 9.4.

As to “AATGTGAAAAAAAAAAGTACAGACCTAATCAAAAAA [XGTACX_site2486]”, the “gcPBM binding intensity (ln)” value was found to be 9.68.

Turning to “AAAAAAAATACATACACACACACACCCACATATATA [CACACA_site3561]”, the “gcPBM binding intensity (ln)” value turned out to be 10.6.

Regarding ATAGAAGGCAACTTGGTGCACAAAAAAAAAAATAAT, the “gcPBM binding intensity (ln)” value came to 10.

Regarding “AATATAAAAAAAGAGGAGGGATGGTATACTTGTGGT [CACACA_negctrl_site986]”, the “gcPBM binding intensity (ln)” value amounted to 9.89.

Consider “ATATAATAATATTAAAGTACATGCATATATATTTAT [XGTACX_site7422]”, for which the “gcPBM binding intensity (ln)” value was found to be 9.66.

In the case of “ACTATTTAAATGCAAAGTACTTTGATAATAAACAAT [XGTACX_site2608]”, the “gcPBM binding intensity (ln)” value stood at 9.86.

“TAATATAACAAAAAAATAAAATAAAATAAAAAATAA [CACACA_negctrl_site109]”: the “gcPBM binding intensity (ln)” value is 9.69.

As to “ATTTTTTAAAAAAACATACACACAAAAAAAAAAAAA [CACACA_site3936]”, the “gcPBM binding intensity (ln)” value was found to be 9.61.

For “CATAATATCTCTTTGTGTACATATAGTTATTATTAT [XGTACX_site7688]”, the “gcPBM binding intensity (ln)” value turned out to be 9.86.

In the case of “CTGGAGTTAAAAATGTGTACCTAAAAAATTTTGTTC [XGTACX_site5554]”, the “gcPBM binding intensity (ln)” value was 9.56.

“ATTATTATATATAAAACACACAATTTTGTTTTCACA [CACACA_site3965]”: the “gcPBM binding intensity (ln)” value was found to be 9.68.

On to “CTTGTATATAAACACACACACACTTTCTTTTTTTAA [CACACA_site8602]”, for which the “gcPBM binding intensity (ln)” value is 10.7.

For the sequence “AAAAAAAAAAAAAAAAAAAAAAATATATATATATTT [GTGCAC_negctrl_site502]”, the “gcPBM binding intensity (ln)” value amounted to 9.41.

As for “ATTAATCAATATAGGCGTACAAAAAAAATAAATTAT [XGTACX_site1513]”, the “gcPBM binding intensity (ln)” value was found to be 9.74.

For “CCCCTTAATTTATTTTGTACATATAATTTTTTTTTT [XGTACX_site3270]”, the “gcPBM binding intensity (ln)” value is 9.9.

In the case of “GTATTTTTAAATGACACACACATATATAAATATGTA [CACACA_site6880]”, the “gcPBM binding intensity (ln)” value amounted to 9.86.

Turning to “ACAAAAATAAGCAAATGTACATATGTATAATATATT [XGTACX_site2492]”, the “gcPBM binding intensity (ln)” value amounted to 9.93.

“TATAAACATAAATATACACACAAACATATAGGTATT [CACACA_site6690]”: the “gcPBM binding intensity (ln)” value was determined as 10.1.

Regarding “ATATTATAATTGAAGGTGCAAAATGTAATATAGATA [GTGCAC_site9661]”, the “gcPBM binding intensity (ln)” value amounted to 9.81.

With “ATTATTATTTAAAAAAGTACATTGAAGTTCATAATA [XGTACX_site3575]”, the “gcPBM binding intensity (ln)” value turned out to be 9.45.

As to “ATTCATTTTTTGGGGGGTACACCCTTTTAAACATTT [XGTACX_site4797]”, the “gcPBM binding intensity (ln)” value turned out to be 9.76.

Regarding “GTATAAAAAAATATATGTACTTATTTACATATATAT [XGTACX_site4744]”, the “gcPBM binding intensity (ln)” value amounted to 9.78.

Turning to “TGAAATGATATATAAACACACATATATATATATATA [CACACA_site3511]”, the “gcPBM binding intensity (ln)” value came to 9.6.

As to “ATTTTTAATGTGATCACACATAAATATTATATATAT [CACACA_site5641]”, the “gcPBM binding intensity (ln)” value was found to be 9.64.

On to “ATTATATTCCAAGTTTGTACATATATATAAAAGTAT [XGTACX_site1631]”, for which the “gcPBM binding intensity (ln)” value was determined as 9.66.

As for “GTAAAAGTTAAAAAAACATGCAAAATTTAAAAAAAA [TGCATGCA_site637]”, the “gcPBM binding intensity (ln)” value is 9.65.

Turning to “ATACATATATATATTCTACACACTTATAATATAATA [CACACA_site8782]”, the “gcPBM binding intensity (ln)” value stood at 9.75.

Turning to “ACTATATTTGCCCTTTTAATCAGAACAAAAAAAAAA [CACACA_negctrl_site1051]”, the “gcPBM binding intensity (ln)” value came to 9.3.
